Results published in PubChem BioAssay AID624417 (National Center for Advancing Translational Sciences (NCATS), 2012).
Out of some 410,000 compounds screened, about 6,400 (1.6%) were called active. The shares of active, inactive and inconclusive entries below differ from those in the screen. The call rests on the fitted dose curve; in most records, active means well fitted inhibition curve with a large enough effect; inconclusive means small, poorly fitted or top-dose-only effect; inactive means no such curve, though single readings can be large or run the other way. Potencies of inconclusive entries are left out as doubtful fits.

Molecular target: Glucagon-like peptide 1 receptor (Homo sapiens) (UniProt P43220)
Sequence of UniProt P43220 (P43220 whole entry, looked up): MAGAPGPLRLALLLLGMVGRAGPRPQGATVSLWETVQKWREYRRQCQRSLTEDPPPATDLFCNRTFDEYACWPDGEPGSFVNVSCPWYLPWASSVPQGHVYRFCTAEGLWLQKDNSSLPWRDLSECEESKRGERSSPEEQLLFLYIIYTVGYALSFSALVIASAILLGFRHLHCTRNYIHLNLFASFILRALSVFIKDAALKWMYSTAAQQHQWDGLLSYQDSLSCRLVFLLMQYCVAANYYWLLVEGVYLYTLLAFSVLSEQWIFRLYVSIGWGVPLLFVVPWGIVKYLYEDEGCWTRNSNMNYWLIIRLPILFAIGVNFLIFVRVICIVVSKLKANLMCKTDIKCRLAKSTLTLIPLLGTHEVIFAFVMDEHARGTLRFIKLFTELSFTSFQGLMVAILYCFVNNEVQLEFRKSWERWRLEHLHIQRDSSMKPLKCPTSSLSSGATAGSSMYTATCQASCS
Experiment: qHTS of GLP-1 Receptor Inverse Agonists (Inhibition Mode); further: nearly all actives have a fitted effect of over 55% in size
Conditions: HEK293 GLP-1R CRE-luciferase, luminescence, 24 h, GLP-1R form is constitutively active; activity change, negative = inhibition: at 38.3 µM (top of the series) unless noted
Procedure, shortened: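 Cells are plated, allowed 12 hours at 37 deg C, then treated with compounds for 24 hr before luciferase detection reagent is added and luminescence is read after 12 min at room temperature. The HEK293 line carries constitutively active GLP-1R with a cAMP-responsive reporter.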
On the % scale 0 is the no-effect control and ±100 the full control effect; potency means the concentration at half of the fitted maximal effect; tags describe the fitted curve by direction and shape.

SMILES | Potency | activity change, negative = inhibition
CO/N=C/c1ccc(N2CCN(C(=O)c3cccc(C(F)(F)F)c3)CC2)c([N+](=O)[O-])c1 | inconclusive [inhibitor, single point] | –
O=C(COC(=O)c1ccc(O)cc1O)Nc1cccc2ccccc12 | inconclusive [inhibitor, partial curve] | –
COc1ccc(/C=C\C(=O)c2c(O)ccc3c(C)cc(=O)oc23)cc1 | inconclusive [inhibitor, single point] | –
COc1ccc(-c2nc3scc(CCNS(=O)(=O)c4cccs4)n3n2)cc1 | – | inactive: 9.37%
COC(=O)c1ccc(-c2c(-c3ccccc3)ncc3cc(F)ccc23)cc1 | inconclusive [inhibitor, single point] | –
c1csc(CNc2ccn3nc(-c4ccc(OCCN5CCOCC5)cc4)cc3n2)c1 | inconclusive [inhibitor, partial curve, poor fit] | –
CC(Oc1ccc(C#N)cc1)C(=O)N1CC=C(c2ccccc2)CC1 (stereo unspecified) | inconclusive [inhibitor, partial curve, poor fit] | –
CCCCCOC(=O)CSc1nc2sc3c(c2c(=O)n1Cc1ccccc1)CC(C)(CC)OC3 (stereo unspecified) | inconclusive [inhibitor, partial curve, poor fit] | –
CCOC(=O)/C(=N/Nc1ccc(C)cc1)S(=O)(=O)c1ccc(Cl)cc1 | inconclusive [inhibitor, partial curve, poor fit] | –
COc1ccc(OC(=O)N(C)C[C@@H]2OCc3cn(nn3)CCCC(=O)N([C@@H](C)CO)C[C@H]2C)cc1 | – | inactive: -0.0283%
Cc1ccc(S(=O)(=O)/N=C2\C=C(NS(=O)(=O)c3ccccc3)C(=O)c3ccccc32)c(C)c1 | – | inactive: -2.26%
COc1cnc(-c2ccccn2)nc1Sc1ccc(F)cc1 | inconclusive [inhibitor, partial curve, poor fit] | –
COc1ccccc1N1CCN(C(=O)c2cc(-c3ccccc3)on2)CC1 | inconclusive [inhibitor, partial curve, poor fit] | –
CCOc1ccc(NC(=O)CN(C)C(=O)c2cc(-c3ccc(OC)cc3)nc3ccccc23)cc1OCC | inconclusive [inhibitor, single point] | –
COCC1CCN(C(=O)c2cc(COc3ccc(OC)cc3Cl)on2)C1 (stereo unspecified) | inconclusive [inhibitor, single point] | –
CC(=O)Nc1cc(-c2ccccc2N(C)C)cn2c(-c3cccc(C(F)(F)F)c3)cnc12 | inconclusive [inhibitor, partial curve, poor fit] | –
COc1ccc(Br)cc1CNCc1c(C(=O)O)c(C)n(Cc2ccccc2C)c1C | – | inactive: -2.68%
Cc1cc(NC(=O)CS(=O)(=O)c2cn(Cc3cccc(Cl)c3)c3ccccc23)no1 | inconclusive [inhibitor, single point] | –
C/C(=N\NC(=O)c1cc(-c2cccnc2)nc2ccccc12)c1ccc(O)cc1O | – | inactive: -19.5%
C[C@H]1CCC[C@]2(O[C@H](CCO)C[C@H](O)[C@H]2O)O1 | – | inactive: 1.7%
O=C(Nc1ccc2c(c1)OCO2)c1cc(C2CCCCN2S(=O)(=O)c2ccccc2)on1 (stereo unspecified) | inconclusive [inhibitor, partial curve, poor fit] | –

SMILES | Potency | activity change, negative = inhibition
COc1ccc2oc(-c3ccccc3)c(C(=O)N3CCOCC3)c2c1 | inconclusive [inhibitor, partial curve, poor fit] | –
Cc1ccc(S(=O)(=O)N2CC3(O)CN(C(=O)OC(C)C)N(C(=O)OC(C)C)CC3(OC(=O)NCc3ccccc3)C2)cc1 (stereo unspecified) | inconclusive [inhibitor, single point] | –
COC(C(=O)Nc1ccnn1C1CCN(Cc2ccc(C)s2)CC1)c1ccccc1 (stereo unspecified) | inconclusive [inhibitor, partial curve, poor fit] | –
Cc1cc(C)c(NC(=O)c2sc3nc(C)cc(C)c3c2N)c(C)c1 | – | inactive: 9.6%
COc1cc(/C=C/C(=O)Nc2cccnc2)cc(OC)c1OC | – | inactive: 42.3%
COc1ccccc1CNC(c1ccccc1)c1ccccc1 | inconclusive [inhibitor, single point] | –
Clc1ccc(-c2nnc(-c3ccc4ccccc4c3)o2)cc1 | – | inactive: 16.4%
Cc1cccc(N2C(=O)CC(SC(=Nc3ccccc3)Nc3ccccc3)C2=O)c1 (stereo unspecified) | inconclusive [inhibitor, partial curve, poor fit] | –
Cc1ccc(C(=O)OCc2nnc(-c3ccccc3)o2)s1 | inconclusive [inhibitor, single point] | –
CCOC(=O)Cc1csc(NC(=S)NC(=O)c2ccccc2)n1 | inconclusive [inhibitor, single point] | –
OCCCCNCc1ccc(OCc2ccc(Cl)cc2)cc1 | inconclusive [inhibitor, partial curve, poor fit] | –
CCSc1nnc(NC(=O)c2nc(-c3ccccc3)n(-c3ccccc3)n2)s1 | inconclusive [inhibitor, partial curve, poor fit] | –
c1csc(-c2nc(N3CCCCC3)no2)c1 | inconclusive [inhibitor, single point] | –
COc1ccc2[nH]cc(CCNC(=O)Nc3ccccc3C)c2c1 | inconclusive [inhibitor, single point] | –
C/C(=N\Nc1cc(N2CCCCC2)nc(C)n1)c1ccc(Br)cc1 | active: 10 µM | –
COc1cccc(S(=O)(=O)N(C)C[C@@H]2Oc3cc(Br)ccc3S(=O)(=O)N([C@@H](C)CO)C[C@@H]2C)c1 | inconclusive [inhibitor, single point] | –
Cc1cccc(-c2cc3c(nn2)-c2ccccc2C3=O)c1 | – | inactive: 37.3%
COCCN(Cc1cc2cccc(C)c2[nH]c1=O)C(=O)c1ccccc1 | inconclusive [inhibitor, single point] | –
CCCCCCSC1=C(C#N)C(c2ccc(O)cc2)CC(=O)N1 (stereo unspecified) | active: 5.01 µM | –
CCc1ccccc1NC(=O)CC(c1ccc(F)cc1)N1Cc2ccccc2C1=O (stereo unspecified) | inconclusive [inhibitor, single point] | –
